We go through three compounds from paper PMC6089501 (Journal of Medicinal Chemistry, 2018).

Where two headings read alike, the source gives them in different places.

For data set [1], the system named is M. tuberculosis. Particulars: cited from earlier work.
In data set [2] the test system is M. tuberculosis. Particulars: in vivo; cited from earlier work.
For data set [3] the following is noted: male, Sprague-Dawley, rat, in vivo.
The conditions of data set [4]: mouse.

`CCOC(=O)NC(=O)c1ccsc1NC(=O)c1nc2ccccc2s1` [TCA1]: in the data set with M. tuberculosis [1], the “in vitro bactericidal activity” value was “in vitro bactericidal activity against both replicating and nonreplicating M. tuberculosis”. Further, the “efficacy in mouse models of TB infection” value in the data set with M. tuberculosis [2] is “efficacious in both acute and chronic mouse models of TB infection”.

As for `NC(=O)c1sc(N2CCOCC2)cc1OCCc1ccc(OC(F)(F)F)cc1` [Compound 37, 5-Morpholino-3-[2-[4-(trifluoromethoxy)phenyl]ethoxy]thiophene-2-carboxamide], in data set [3], the “fraction of drug absorbed (Fa) from the gastrointestinal tract” value is 21% and the “hepatic extraction ratio (ER)” value worked out at 44%. Further, in data set [3] (po, 5 mg/kg), the “hepatic extraction ratio (ER)” value is given as 0.4. Moreover, in data set [4], the “main in vivo metabolites (in words)” value is “products of oxidation of the morpholine”.

Turning to `NC(=O)c1sc(CN2CCOCC2)cc1OCCc1ccccc1` [Compound 18, 5-(Morpholinomethyl)-3-(2-phenylethoxy)thiophene-2-carboxamide], in data set [4] (C57 Black, in vivo), the “% Peak Area, metabolite A P + O” value stood at 4%.
